Test results published in PubChem BioAssay AID1963576 (National Center for Advancing Translational Sciences (NCATS), 2024).
Hit rate of the full screen: of about 46,000 compounds, about 60 (0.1%) were called active. Inconclusive results (about 3%) are left out. Calls come from the whole dose curve; as a rule, active = well fitted inhibition curve with a large enough effect; inconclusive = small, poorly fitted or top-dose-only effect; inactive = no such curve, though single readings can be large or run the other way. The list shows a part of the results.

Assay: Primary qHTS assay for Inhibitors of ovarian cancer metastasis using an organotypic tumor microenvironment (TME) model.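 For Potency: count of GFP cancer cells still attached after washing and fixation.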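 For activity change, negative = inhibition: plate controls were DMSO wells for no effect and tomatine positive control wells for full effect.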 Note: nearly all actives have a fitted effect of over 65% in size.
Settings: SKOV3ip1-GFP adhesion/invasion on 3D omental model, fluorescence; series mostly up to 45.8 µM; activity change, negative = inhibition: at the top concentration
Summary of the method: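 qHTS, 4-pt dose (0.36-46 umol/L); SKOV3ip1-GFP, 1,200 cells/well, no FBS; primary omental fibroblast/mesothelial co-culture 48 h pre-grown; 2 h RT + 16 h 37 C; PBS wash, 4% PFA; GFP count 488/509 nm.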
Potency is the fitted concentration of half-maximal effect.

Structure (SMILES) | activity change, negative = inhibition | outcome | Potency
Cc1ccc(NC(=O)CN(C)S(=O)(=O)c2ccc3c(c2)n(C)c(=O)c(=O)n3C)cc1C | inactive: -3.67% |  | 
Cc1ccccc1CNC(=O)c1cnc2sc(N3CCOCC3)nn2c1=O | inactive: -2.74% |  | 
Cc1ccc(C)c(OCCn2c(-c3ccc(Cl)cc3)nc3ccccc3c2=O)c1C | inactive: 22.7% |  | 
CCn1c2ccccc2c2nnc(SCC(=O)O)nc21 | inactive: -4.16% |  | 
Cc1ccccc1C(=O)c1cccn1CC(=O)NCc1ccccc1 | inactive: 8.95% |  | 
CCOc1ccc(CCNC(=O)Cn2nc(C)n3c(cc4occc43)c2=O)cc1OCC | inactive: 86.9% |  | 
CCOC(=O)N[C@@H]1CC[C@@H]2[C@@H](C1)C[C@H]1C(=O)O[C@H](C)[C@H]1[C@@H]2C=Cc1ccc(-c2cccc(F)c2)cn1 | inactive: 1.1% |  | 
CC(C)Oc1ccc(CNC(=O)c2cc3ccccn3n2)cc1 |  | inactive | 
COc1ccc(CNC(=O)CSc2nc(-c3ccc(OC)cc3)cc(C(F)(F)F)n2)cc1 | inactive: 5.82% |  | 
COc1cccc(-c2cc(C(=O)Nc3cc(Cl)ccc3O)on2)c1 | inactive: -3.77% |  | 
Cc1ccc(CCNC(=O)CCCn2nc(C)c3c(C)n(-c4ccccc4)nc3c2=O)cc1 | inactive: 6.21% |  | 
CC(=O)Nc1ccc(S(=O)(=O)N2CCC(n3c(C(F)(F)F)nc4cccnc43)CC2)cc1 | inactive: 1.41% |  | 
CCc1ccc(OCC(=O)Nc2cc3oc4ccccc4c3cc2OC)cc1 |  | inactive | 
O=C(COc1ccccc1Cl)NCC1(N2CCOCC2)CCCCC1 |  | inactive | 
COc1cc(OC)c(NC(=O)C2CCCN(c3ncnc4c3nc3n4CCCCC3)C2)cc1Cl (stereo not given) | inactive: 2.6% |  | 
Cc1ccccc1-c1nc(CS(=O)(=O)CC(=O)NCC(C)c2ccccc2)c(C)o1 (stereo not given) |  | inactive | 
CCc1ccccc1NC(=O)Cn1c(=O)n(Cc2ccc3c(c2)OCO3)c(=O)c2ccc(C(=O)NC3CCCCC3)cc21 | inactive: -10.5% |  | 
CCCc1nn2c(=O)cc(COC(=O)c3cccc(NC(=O)COc4ccccc4C)c3)nc2s1 |  | inactive | 
Cc1cccc(OCCn2c(-c3ccc(Cl)cc3)nc3ccccc3c2=O)c1 | inactive: -6.04% |  | 
O=C(NCCc1ccccc1)c1cnc2sc(N3CCCC3)nn2c1=O | inactive: 4.74% |  | 
COc1ccccc1N1CCN(C(=O)c2nn(-c3ccc(C)cc3)c(=O)n(C)c2=O)CC1 | inactive: 2.62% |  | 
COCCCNC(=O)c1oc2c(c1C)-c1nn(Cc3cccc(Cl)c3)cc1CC2 | inactive: -0.025% |  | 
CC(=O)c1c(C)nc2nc(-c3ccccc3)nn2c1C |  | inactive | 
CCCCOc1ccc(C(=O)N2CCN(CCc3ccncc3)CC2)cc1 | inactive: 3.02% |  | 

Structure (SMILES) | activity change, negative = inhibition | outcome | Potency
COC(=O)C1=C(CS(=O)(=O)c2cc(Cl)ccc2OC)NC(=O)NC1c1ccccc1 (stereo not given) | inactive: -22.4% |  | 
COc1cc(NS(=O)(=O)c2ccc3c(c2)CCN3S(C)(=O)=O)cc(OC)c1 | inactive: 7.2% |  | 
Cc1cc2nnc(SCC(=O)Nc3ccc(F)c(Cl)c3)n2c2ccccc12 | inactive: -6.93% |  | 
CC1Cc2cc(S(=O)(=O)N3CCN(c4ccccc4F)CC3)ccc2N1C(=O)C1CCC1 (stereo not given) | inactive: -0.171% |  | 
CCOC(=O)c1ccc(Nc2c(-c3ccc(O)c(OC)c3)nc3nc[nH]n23)cc1 | inactive: 0.179% |  | 
CCCn1ccc2c(OCC(=O)NCc3ccc(C)cc3)cccc2c1=O | inactive: -0.303% |  | 
Cc1ccc(CNC(=O)C2CCCN(S(=O)(=O)c3cccc4nsnc34)C2)cc1 (stereo not given) | inactive: 20.7% |  | 
CCc1ccc2c(c1)c(=O)c(S(=O)(=O)c1ccc(F)cc1)cn2CC(=O)Nc1ccc(C)cc1C | inactive: -3.56% |  | 
CS(=O)(=O)OCCCCOS(C)(=O)=O | inactive: -9.92% |  | 
CCc1nn2c(=O)cc(COC(=O)c3cccc(NC(=O)c4ccccc4Cl)c3)nc2s1 | inactive: 19% |  | 
Cc1cc2ncn(CCCCOc3ccccc3)c2cc1C |  | inactive | 
CN1CCC[C@H]1CCO[C@](C)(c1ccccc1)c1ccc(Cl)cc1 | inactive: 3.49% |  | 
COc1ccc(CNC(=O)c2cnc3sc(N4CCCC4)nn3c2=O)cc1OC | inactive: 20.8% |  | 
O=C(CSc1c2c(nc3ccc(Cl)cc13)CCCC2)N1CCN(c2cccc(Cl)c2)CC1 | inactive: -8.77% |  | 
Cc1ccc2c(c1)C(c1ccc(F)cc1)N(C(=O)COc1ccc(Cl)cc1Cl)CC(=O)N2 (stereo not given) | inactive: 0.634% |  | 
CCN(CCCNC(=O)c1cc2c(=O)n(C)c3ccccc3c2s1)Cc1ccccc1 |  | inactive | 
COc1cc(NC(=O)CC2C(=O)N(c3ccc(Cl)cc3)C(=O)N2Cc2cccs2)cc(OC)c1 (stereo not given) | inactive: -1.92% |  | 
Cc1ccc(C(=O)NCc2ccc(N(C)C)cc2)cc1NC(=O)c1nsc2ccccc12 | inactive: -16.7% |  | 
CCOC(=O)c1c(C)[nH]c(CCC(=O)Nc2cc(C)ccc2OC)c1C |  | inactive | 
COc1cc(-c2nnn(CC(=O)Nc3ccc(OC(F)(F)F)cc3)n2)cc(OC)c1OC |  | inactive | 
CC1CCC(NC(=O)c2ccc3c(c2)N(Cc2ccccc2)C(=O)c2ccccc2S3=O)CC1 (stereo not given) |  | inactive | 
CCOC(=O)c1cccc(NC(=O)CN2C(=O)c3ccccc3Sc3ncccc32)c1 | inactive: 28.6% |  | 
O=C(Cn1ncc2c1-c1ccccc1OC2)N1CCN(c2ccccc2F)CC1 | inactive: 4.78% |  | 
COc1ccccc1CNC(=O)C1CCCN(S(=O)(=O)c2ccc3c(c2)CCCN3C(C)=O)C1 (stereo not given) | inactive: -0.5% |  | 

Structure (SMILES) | activity change, negative = inhibition | outcome | Potency
Cc1cccc(C)c1NC(=O)c1oc2ccc3c(c2c1C)C(=O)CC(C)(C)O3 |  | inactive | 
Cc1cc2oc(C(=O)Nc3c(C(=O)Nc4ccccc4)oc4ccccc34)cc(=O)c2cc1C | inactive: -6.81% |  | 
Cc1cccn2c(=O)c(C(=O)NCCCN3CCCCC3C)c(O)nc12 (stereo not given) |  | inactive | 
Cc1nnc(NCc2ccccc2)c2c1nnn2Cc1ccccc1Cl | inactive: -14.2% |  | 
O=C(CSCc1ccccc1Cl)N1CCN(c2ccc(F)cc2)CC1 | inactive: -0.153% |  | 
CN1C(C(=O)Nc2ccc(F)cc2F)=CC(c2ccco2)=NS1(=O)=O | inactive: 9.07% |  | 
C[C@H](NCc1ccc2c(c1)nc(NC(=O)c1ccc(-c3cn[nH]c3)s1)n2CCc1ccccc1)C(C)(C)C |  |  | active: 18.7 µM
CCOc1ccc(N(C(=O)Cn2nnc3ccccc32)C(C(=O)NCc2ccccc2)c2ccc(OC)cc2)cc1 (stereo not given) |  | inactive | 
CCOC(=O)c1cc(-c2ccccc2)n(-c2cccc(C(=O)Nc3ccc(OC)cc3)c2)c1C | inactive: -9.02% |  | 
O=C(Cn1c(=O)c2cccn2c2ccccc21)Nc1cc(F)ccc1F | inactive: 2.51% |  | 
CC(C)(C)C1CCc2c(sc(NC(=O)Cn3nnc(-c4ccccc4F)n3)c2C#N)C1 (stereo not given) | inactive: -13.4% |  | 
CCc1ccc(-c2nn(CC(=O)Nc3ccccc3)c3c2cnc2ccc(F)cc23)cc1 | inactive: 2.3% |  | 
COc1ccc(N2CCN(C(=O)c3cn(CC(C)C)c(=O)c4c3c3ccccc3n4C)CC2)cc1 | inactive: -6.25% |  | 
N#CCNC(=O)c1ccc(-c2ccnc(Nc3ccc(N4CCOCC4)cc3)n2)cc1 | inactive: -12.3% |  | 
CC(=O)Nc1cccc(NC(=O)C(=O)NCCc2sc(-c3ccccc3)nc2C)c1 | inactive: 1.03% |  | 
COc1ccc(OCC(=O)OCc2cc(=O)n3nc(C4CCCCC4)sc3n2)cc1 | inactive: -3.62% |  | 
Cc1ccc(CCNC(=O)Cn2nc(-c3ccc(C)cc3)ccc2=O)cc1 | inactive: -2.21% |  | 
CCN(CC)CCNC(=O)c1cn(CC)c2ccc(S(=O)(=O)N3CCOCC3)cc2c1=O | inactive: 2.24% |  | 
CC(=O)N1CCCc2cc(S(=O)(=O)N3CCC(C(=O)NCc4ccc(C)cc4)CC3)ccc21 | inactive: 2.3% |  | 
CCC(C(=O)NCCc1ccc(SC)cc1)n1nc(C)c2sc3ccccc3c2c1=O (stereo not given) | inactive: -3.07% |  | 
COC(=O)c1ccccc1NC(=O)Cn1c(=O)n(-c2cccc(OC)c2)c(=O)c2c(C)c(C(=O)N(C)C)sc21 |  | inactive | 
Cc1onc(-c2ccccc2Cl)c1C(=O)Oc1cc(F)cc(F)c1 | inactive: 0.949% |  | 
COc1ccc(-c2[nH]ncc2C(=O)NCc2ccccc2C)cc1 | inactive: -3.43% |  | 
COCCNCCCn1c(C(=O)CF)c(-c2ccc(C)cc2)c2c(N)ncnc21 | inactive: -12% |  | 

Structure (SMILES) | activity change, negative = inhibition | outcome | Potency
O=C(c1ccc2c(c1)N(Cc1ccc(F)cc1)C(=O)c1ccccc1S2=O)N1CCC(Cc2ccccc2)CC1 (stereo not given) | inactive: 3.89% |  | 
Cc1ccc(C)c(NC(=O)CSc2ncc(S(=O)(=O)c3ccc(C)c(Cl)c3)c(=O)[nH]2)c1 |  | inactive | 
CSc1cccc(Nc2nc3c(S(=O)(=O)c4ccccc4)nnn3c3ccc(Cl)cc23)c1 | inactive: 4.85% |  | 
O=C(Cn1ncc2ccc(Cl)cc21)NCc1ccc(F)cc1 | inactive: -0.492% |  | 
Cc1ccc(C(=O)Nc2cccc(C(=O)O)c2)cc1S(=O)(=O)N1CCCC1 | inactive: -10.3% |  | 
C=C1[C@H](n2cnc3c(=O)[nH]c(N)nc32)C[C@H](O)[C@H]1CO | inactive: -8.74% |  | 
Cc1c(Cl)cccc1NC(=O)Nc1nnc(N2CCCCCC2)s1 | inactive: 11.6% |  | 
COc1ccccc1NC(=O)c1cccc(S(=O)(=O)N2CCCCCC2)c1 | inactive: 0.909% |  | 
CC1(C)CC(O)CC(C)(C)N1[O] | inactive: 1.98% |  | 
CCc1ccc(CNC(=O)c2ccc(NC(=O)N3CCCCc4ccccc43)cc2)cc1 |  | inactive | 
CCC1CN(C(=O)N2CCC(C(=O)NCc3cccc(C)c3)CC2)c2ccccc2O1 (stereo not given) |  | inactive | 
C=C(C)CSc1nc2sc3c(c2c(=O)n1-c1ccccc1)CC(C(C)C)OC3 (stereo not given) |  | inactive | 
COC(=O)c1scc(-c2ccc(C)cc2)c1S(=O)(=O)Nc1cc(OC)c(OC)c(OC)c1 |  | inactive | 
COc1ccc(CNC(=O)c2c3c(nc4ccccc24)C(=O)N(C2CCCCC2)C3)c(OC)c1 | inactive: 10.6% |  | 
CCOc1ccccc1N(CC)C(=O)c1cc2c(=O)[nH]c3ccc(C)cc3c2s1 | inactive: -0.198% |  | 
CCCCC(CC)CNC(=O)CN1C(=O)CSc2ccc(S(=O)(=O)N3CCOCC3)cc21 (stereo not given) | inactive: 7.36% |  | 
O=C(Cn1c(=O)nc(-c2ccccc2F)c2cc(Cl)ccc21)N1CCN(c2ccccc2F)CC1 | inactive: -3.02% |  | 
CC(=O)Nc1nonc1-c1nnc(SCC(=O)N(C)c2ccccc2)n1C | inactive: -3.42% |  | 
CCN(c1cccc(C)c1)S(=O)(=O)c1ccc2[nH]cc(C(=O)NCCCOC)c(=O)c2c1 |  | inactive | 
Cc1ccc(NC(=O)/C(C#N)=C/c2ccc(C(C)C)cc2)cc1C | inactive: 6.89% |  | 
O=C(Cn1cc(S(=O)(=O)Cc2cccc(Cl)c2)c2ccccc21)NCCc1ccccc1 | inactive: -11.8% |  | 
Clc1cccc(-n2ncc3c(N4CCCCC4)ncnc32)c1 |  | inactive | 
Cc1nnc(C(C)C)n1C1C[C@H]2CC[C@@H](C1)N2CC[C@H](NC(=O)C1CCC(F)(F)CC1)c1ccccc1 (stereo not given in full) | inactive: 6.93% |  | 
